Test results from patent US20260297081A1, “COMPOUNDS AND METHODS OF TREATING CANCERS” (Cullgen Inc., priority 2023, published 2026).
The name of at least one read-out is uncertain.

System: cyclin D1
Assay: HiBiT detection of HiBiT-tagged cyclin D1 protein level in MCF7 cells, 16 hours (Table 8)
Type: cell-based
Conditions: MCF7 cells stably expressing HiBiT tagged target proteins

SMILES | % Cyclin D1 Relative Level (10 nM) | % Cyclin D1 Relative Level (100 nM)
CC(=O)c1cc2cnc(Nc3ccc(N4CCN(C5CCN(C(=O)[C@H]6CC[C@H](Nc7nc(NC(C)C)ccc7C(=O)Nc7ccc(N(C)C)nn7)CC6)C5)CC4)cn3)nc2n(C2CCCC2)c1=O (stereo partly drawn) [CPD-560, 2-((trans-4-(3-(4-(6-((6-acetyl-8-cyclopentyl-7-oxo-7,8-dihydropyrido[2,3-d]pyrimidin-2-yl)amino)pyridin-3-yl)piperazin-1-yl)pyrrolidine-1-carbonyl)cyclohexyl)amino)-N-(6-(dimethylamino)pyridazin-3-yl)-6-(isopropylamino)nicotinamide] | C (Relative protein level >85%) | B (55%< Relative protein level ≤85%)
CC(=O)c1c(C)c2cnc(Nc3ccc(N4CCN(C5CCN(C(=O)N6CCC7(CCC(Nc8nc(NC(C)C)ccc8C(=O)Nc8ccc(N(C)C)nn8)C7)C6)C5)CC4)cn3)nc2n(C2CCCC2)c1=O (stereo not shown) [CPD-561, 2-((2-(3-(4-(6-((6-acetyl-8-cyclopentyl-5-methyl-7-oxo-7,8-dihydropyrido[2,3-d]pyrimidin-2-yl)amino)pyridin-3-yl)piperazin-1-yl)pyrrolidine-1-carbonyl)-2-azaspiro[4.4]nonan-7-yl)amino)-N-(6-(dimethylamino)pyridazin-3-yl)-6-(isopropylamino)nicotinamide] | C (Relative protein level >85%) | B (55%< Relative protein level ≤85%)
CC(C)Nc1ccc(C(=O)Nc2ccc(N(C)C)nn2)c(NC2CC3(CC(NC(=O)CN4CCN(Cc5ccc(Nc6ncc7cc(C(=O)N(C)C)n(C8CCCC8)c7n6)nc5)CC4)C3)C2)n1 (stereo not shown) [CPD-562, 7-cyclopentyl-2-((5-((4-(2-((6-((3-((6-(dimethylamino)pyridazin-3-yl)carbamoyl)-6-(isopropylamino)pyridin-2-yl)amino)spiro[3.3]heptan-2-yl)amino)-2-oxoethyl)piperazin-1-yl)methyl)pyridin-2-yl)amino)-N,N-dimethyl-7H-pyrrolo[2,3-d]pyrimidine-6-carboxamide] | C (Relative protein level >85%) | C (Relative protein level >85%)
CC(C)Nc1ccc(C(=O)Nc2ccc(N(C)C)nn2)c(NC2CC3(C2)CN(C(=O)CN2CCN(Cc4ccc(Nc5ncc6cc(C(=O)N(C)C)n(C7CCCC7)c6n5)nc4)CC2)C3)n1 [CPD-563, 7-cyclopentyl-2-((5-((4-(2-(6-((3-((6-(dimethylamino)pyridazin-3-yl)carbamoyl)-6-(isopropylamino)pyridin-2-yl)amino)-2-azaspiro[3.3]heptan-2-yl)-2-oxoethyl)piperazin-1-yl)methyl)pyridin-2-yl)amino)-N,N-dimethyl-7H-pyrrolo[2,3-d]pyrimidine-6-carboxamide] | C (Relative protein level >85%) | C (Relative protein level >85%)
CC(=O)c1c(C)c2cnc(Nc3ccc(CN4CCN(CC(=O)N5CCC(Nc6nc(NC(C)C)ccc6C(=O)Nc6cn7c(n6)CCC7)CC5)CC4)cn3)nc2n(C2CCCC2)c1=O [CPD-564, 2-((1-(2-(4-((6-((6-acetyl-8-cyclopentyl-5-methyl-7-oxo-7,8-dihydropyrido[2,3-d]pyrimidin-2-yl)amino)pyridin-3-yl)methyl)piperazin-1-yl)acetyl)piperidin-4-yl)amino)-N-(6,7-dihydro-5H-pyrrolo[1,2-a]imidazol-2-yl)-6-(isopropylamino)nicotinamide] | C (Relative protein level >85%) | B (55%< Relative protein level ≤85%)
CC(=O)c1c(C)c2cnc(Nc3ccc(N4CCC5(CCN(CC(=O)N6CC7(CC(Nc8nc(NC(C)C)ccc8C(=O)Nc8cn9c(n8)CCC9)C7)C6)C5)C4)cn3)nc2n(C2CCCC2)c1=O (stereo not shown) [CPD-565, 2-((2-(2-(7-(6-((6-acetyl-8-cyclopentyl-5-methyl-7-oxo-7,8-dihydropyrido[2,3-d]pyrimidin-2-yl)amino)pyridin-3-yl)-2,7-diazaspiro[4.4]nonan-2-yl)acetyl)-2-azaspiro[3.3]heptan-6-yl)amino)-N-(6,7-dihydro-5H-pyrrolo[1,2-a]imidazol-2-yl)-6-(isopropylamino)nicotinamide] | B (55%< Relative protein level ≤85%) | B (55%< Relative protein level ≤85%)
CC(=O)c1c(C)c2cnc(Nc3ccc(N4CCN(CC(=O)NC5CC6(C5)CC(Nc5nc(NC(C)C)ccc5C(=O)Nc5cn7c(n5)CCC7)C6)CC4)cn3)nc2n(C2CCCC2)c1=O (stereo not shown) [CPD-566, 2-((6-(2-(4-(6-((6-acetyl-8-cyclopentyl-5-methyl-7-oxo-7,8-dihydropyrido[2,3-d]pyrimidin-2-yl)amino)pyridin-3-yl)piperazin-1-yl)acetamido)spiro[3.3]heptan-2-yl)amino)-N-(6,7-dihydro-5H-pyrrolo[1,2-a]imidazol-2-yl)-6-(isopropylamino)nicotinamide] | B (55%< Relative protein level ≤85%) | B (55%< Relative protein level ≤85%)
[2H]C([2H])([2H])Nc1ccc(C(=O)Nc2cn3c(n2)CCC3)c(NC2CC3(C2)CN(C(=O)CC(N2CCN(c4ccc(Nc5ncc6c(C)c(C(C)=O)c(=O)n(C7CCCC7)c6n5)nc4)CC2)C(F)(F)F)C3)n1 (stereo not shown) [CPD-567, 2-((2-(3-(4-(6-((6-acetyl-8-cyclopentyl-5-methyl-7-oxo-7,8-dihydropyrido[2,3-d]pyrimidin-2-yl)amino)pyridin-3-yl)piperazin-1-yl)-4,4,4-trifluorobutanoyl)-2-azaspiro[3.3]heptan-6-yl)amino)-N-(6,7-dihydro-5H-pyrrolo[1,2-a]imidazol-2-yl)-6-((methyl-d3)amino)nicotinamide] | B (55%< Relative protein level ≤85%) | B (55%< Relative protein level ≤85%)
CC(=O)c1c(C)c2cnc(Nc3ccc(N4CCN(C5CCN(C(=O)[C@H]6CC[C@H](Nc7nc(NC(C)C)ccc7C(=O)Nc7cn8c(n7)CCC8)CC6)C5)CC4)cn3)nc2n(C2CCCC2)c1=O (stereo partly drawn) [CPD-568, 2-((trans-4-(3-(4-(6-((6-acetyl-8-cyclopentyl-5-methyl-7-oxo-7,8-dihydropyrido[2,3-d]pyrimidin-2-yl)amino)pyridin-3-yl)piperazin-1-yl)pyrrolidine-1-carbonyl)cyclohexyl)amino)-N-(6,7-dihydro-5H-pyrrolo[1,2-a]imidazol-2-yl)-6-(isopropylamino)nicotinamide] | B (55%< Relative protein level ≤85%) | B (55%< Relative protein level ≤85%)
[2H]C([2H])([2H])Nc1ccc(C(=O)Nc2cn3c(n2)CCC3)c(N[C@H]2CC[C@H](C(=O)N3CCC(N4CCN(c5ccc(Nc6ncc7c(C)c(C(C)=O)c(=O)n(C8CCCC8)c7n6)nc5)CC4)C3)CC2)n1 (stereo partly drawn) [CPD-569, 2-((trans-4-(3-(4-(6-((6-acetyl-8-cyclopentyl-5-methyl-7-oxo-7,8-dihydropyrido[2,3-d]pyrimidin-2-yl)amino)pyridin-3-yl)piperazin-1-yl)pyrrolidine-1-carbonyl)cyclohexyl)amino)-N-(6,7-dihydro-5H-pyrrolo[1,2-a]imidazol-2-yl)-6-((methyl-d3)amino)nicotinamide] | C (Relative protein level >85%) | B (55%< Relative protein level ≤85%)
CC(=O)c1c(C)c2cnc(Nc3ccc(CN4CCN(CC(=O)N5CCC6(CC(Nc7nc(NC(C)C)ccc7C(=O)Nc7ccc(N(C)C)nn7)C6)C5)CC4)cn3)nc2n(C2CCCC2)c1=O (stereo not shown) [CPD-570, 2-((6-(2-(4-((6-((6-acetyl-8-cyclopentyl-5-methyl-7-oxo-7,8-dihydropyrido[2,3-d]pyrimidin-2-yl)amino)pyridin-3-yl)methyl)piperazin-1-yl)acetyl)-6-azaspiro[3.4]octan-2-yl)amino)-N-(6-(dimethylamino)pyridazin-3-yl)-6-(isopropylamino)nicotinamide] | B (55%< Relative protein level ≤85%) | B (55%< Relative protein level ≤85%)
CC(=O)c1c(C)c2cnc(Nc3ccc(N4CCN(C5CCN(C(=O)[C@H]6CC[C@H](Nc7nc(C(F)(F)F)ccc7C(=O)Nc7ccc(N(C)C)nn7)CC6)C5)CC4)cn3)nc2n(C2CCCC2)c1=O (stereo partly drawn) [CPD-571, 2-((trans-4-(3-(4-(6-((6-acetyl-8-cyclopentyl-5-methyl-7-oxo-7,8-dihydropyrido[2,3-d]pyrimidin-2-yl)amino)pyridin-3-yl)piperazin-1-yl)pyrrolidine-1-carbonyl)cyclohexyl)amino)-N-(6-(dimethylamino)pyridazin-3-yl)-6-(trifluoromethyl)nicotinamide] | A (Relative protein level ≤55%) | A (Relative protein level ≤55%)
CC(=O)c1c(C)c2cnc(Nc3ccc(N4CCN(C5CCN(C(=O)C6(F)CCC(Nc7nc(NC(C)C)ccc7C(=O)Nc7ccc(N(C)C)nn7)CC6)C5)CC4)cn3)nc2n(C2CCCC2)c1=O (stereo not shown) [CPD-572, 2-((4-(3-(4-(6-((6-acetyl-8-cyclopentyl-5-methyl-7-oxo-7,8-dihydropyrido[2,3-d]pyrimidin-2-yl)amino)pyridin-3-yl)piperazin-1-yl)pyrrolidine-1-carbonyl)-4-fluorocyclohexyl)amino)-N-(6-(dimethylamino)pyridazin-3-yl)-6-(isopropylamino)nicotinamide] | B (55%< Relative protein level ≤85%) | A (Relative protein level ≤55%)
CC(=O)c1c(C)c2cnc(Nc3ccc(N4CCN(C5CCN(C(=O)[C@H]6CC[C@H](Nc7nc(C8CC8)ccc7C(=O)Nc7ccc(N(C)C)nn7)CC6)C5)CC4)cn3)nc2n(C2CCCC2)c1=O (stereo partly drawn) [CPD-573, 2-((trans-4-(3-(4-(6-((6-acetyl-8-cyclopentyl-5-methyl-7-oxo-7,8-dihydropyrido[2,3-d]pyrimidin-2-yl)amino)pyridin-3-yl)piperazin-1-yl)pyrrolidine-1-carbonyl)cyclohexyl)amino)-6-cyclopropyl-N-(6-(dimethylamino)pyridazin-3-yl)nicotinamide] | B (55%< Relative protein level ≤85%) | B (55%< Relative protein level ≤85%)
